Measurements from patent US20180312565A1 (Affibody, published 2018).

Columns and labels:
[1] = molecular target: T1, rhesus PD-L1/Fc Chimera (Sino Biological Inc., cat. no. 90251-C02H) (rhesus monkey, UniProt F6PJN1 19-239); assay: SPR, 1.67-135 nM
T1 construct: bought; also called RhPD-L1; rhesus monkey PD-L1; not shown: Fc part of the bought Fc chimera, not described
Experimental: (§1) The Z variants were also tested for binding against the sequence-related proteins hPD-L2, hB7-H3 and hB7-H4. The Biacore analyses were performed essentially as described in Example 3, however a flow rate of 30 μl/min was used. […] In the specificity test, i.e. the binding analysis against hPD-L2, hB7-H3 and hB7-H4, the 24 Z variants were injected at a concentration of 500 nM.

[2] = molecular target: T2, human PD-L1 Fc Chimera (R&D Systems, cat. no. 156-B7-100) (human, UniProt Q9NZQ7 19-239, biotinylated with Sulfo-NHS-LC-Biotin in ELISA and AlphaLISA; not biotinylated in SPR); assay: SPR, 1.67-135 nM
T2 construct: bought; also called hPD-L1; biotinylated hPD-L1; not shown: Fc part of the bought Fc chimera, not described
T2 sequence (Q9NZQ7 19-239, change not shown): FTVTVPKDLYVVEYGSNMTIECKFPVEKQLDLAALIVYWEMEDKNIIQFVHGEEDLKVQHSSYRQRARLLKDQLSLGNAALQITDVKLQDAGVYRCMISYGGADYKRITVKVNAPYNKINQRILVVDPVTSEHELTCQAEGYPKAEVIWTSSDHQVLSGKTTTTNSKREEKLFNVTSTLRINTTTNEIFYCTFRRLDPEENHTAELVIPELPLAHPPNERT
Experimental: as §1

[3] = molecular target: T1, rhesus PD-L1/Fc Chimera (Sino …); assay: SPR ranking, 5 and 50 nM
Experimental: as §1

[4] = molecular target: T2, human PD-L1 Fc Chimera (R&D Systems, …); assay: SPR ranking, 5 and 50 nM
Experimental: as §1

[5] = molecular target: T2, human PD-L1 Fc Chimera (R&D Systems, …); assay: AlphaLISA, blocks hPD-L1 binding to hPD-1
Experimental: Exception 2: hPD-1-coated Acceptor beads were added to a final concentration of 10 μg/ml and incubated for 50 min.

[6] = molecular target: T3, human B7-H4 (R&D Systems, cat. no. 6576-B7-50) (human, UniProt Q7Z7D3 29-258, biotinylated in ELISA); assay: SPR
T3 construct: bought; also called hB7-H4
T3 sequence (looked up): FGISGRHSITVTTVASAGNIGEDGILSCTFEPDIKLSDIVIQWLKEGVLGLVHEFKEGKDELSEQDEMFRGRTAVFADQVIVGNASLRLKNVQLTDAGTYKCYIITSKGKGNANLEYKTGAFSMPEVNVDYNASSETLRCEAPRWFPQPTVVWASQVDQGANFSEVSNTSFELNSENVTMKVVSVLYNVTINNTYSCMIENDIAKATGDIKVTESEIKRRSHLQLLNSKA
Experimental: (§2) One flow cell surface on each chip was activated and deactivated for use as blank during analyte injections. In the kinetic experiment, HBS-EP was used as running buffer and the flow rate was 50 μl/min. The analytes, i.e. the Z variants, were each diluted in HBS-EP buffer within a concentration range of 1000 to 0.01 nM and injected for 5 min, followed by dissociation in running buffer for 15-25 min. After dissociation, the surfaces were regenerated with one or two injections of 0.1% SDS. Kinetic constants were calculated from the sensorgrams using the Langmuir 1:1 model of BiaEvaluation software 4.1 (GE Healthcare).
(§3) The Z variants were also tested for binding against the sequence-related proteins hPD-L2, hB7-H3 and hB7-H4. The Biacore analyses were performed essentially as described in Example 3, however a flow rate of 30 μl/min was used.

[7] = molecular target: T4, human B7-H3 Fc Chimera (R&D Systems, cat. no. 1027-B3-100) (human, UniProt Q5ZPR3-2 29-245, biotinylated in ELISA); assay: SPR
T4 construct: bought; also called hB7-H3; not shown: Fc part of the bought Fc chimera, not described
T4 sequence (looked up): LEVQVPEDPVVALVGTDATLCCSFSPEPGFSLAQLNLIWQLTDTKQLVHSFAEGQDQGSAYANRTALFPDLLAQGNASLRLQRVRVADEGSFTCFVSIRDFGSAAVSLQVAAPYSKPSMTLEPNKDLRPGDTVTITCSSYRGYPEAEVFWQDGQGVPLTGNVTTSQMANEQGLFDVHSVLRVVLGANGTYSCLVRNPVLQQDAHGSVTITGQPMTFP
Experimental: as §2, §3

[8] = molecular target: T5, human PD-L2 Fc Chimera (R&D Systems, cat. no. 1224-PL-100) (human, UniProt Q9BQ51 20-219, biotinylated in ELISA); assay: SPR
T5 construct: bought; also called hPD-L2; not shown: Fc part of the bought Fc chimera, not described
T5 sequence (looked up): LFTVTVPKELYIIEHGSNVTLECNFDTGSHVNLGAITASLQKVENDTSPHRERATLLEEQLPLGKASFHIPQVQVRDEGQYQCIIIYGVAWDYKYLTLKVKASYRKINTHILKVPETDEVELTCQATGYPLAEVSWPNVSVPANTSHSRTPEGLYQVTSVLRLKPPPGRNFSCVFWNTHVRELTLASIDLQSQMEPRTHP
Experimental: as §2, §3

[9] = molecular target: T3, human B7-H4 (R&D Systems, cat. no. …); assay: ELISA
[10] = molecular target: T4, human B7-H3 Fc Chimera (R&D Systems, …); assay: ELISA
[11] = molecular target: T5, human PD-L2 Fc Chimera (R&D Systems, …); assay: ELISA

T1 sequence (F6PJN1 entry or part of it C02H C02H): as the sequence (Q9NZQ7 19-239, change not shown) above, with A33T, A34S, S62N, R68Q, Q82R, F173L, T185A, T192I, H215L counted along it

B1: His6-Z17911 (designed binder)
chain: MGSSHHHHHHLQVDAKYAKERNNAAYEILYLPNLTNAQKWAFIWKLDDDPSQSSELLSEAKKLNDSQAPKVD
For B1, the Kd [1] was 200 pM, the koff [1] was 0.00042 s⁻¹ and the kon [1] was 2.1e+06 M⁻¹ s⁻¹. For the same binder, the Kd [2] was 210 pM, the koff [2] was 0.00049 s⁻¹ and the kon [2] was 2.3e+06 M⁻¹ s⁻¹. The Kd [3] was about 2200 pM, the Kd [4] was about 360 pM and the IC50 [5] was 570 pM. B1: no binding (tested: 500 nM) [6]; no binding (tested: 500 nM) [7]; no binding (tested: 500 nM) [8].

B2: His6-Z17964 (designed binder)
chain: MGSSHHHHHHLQVDAKYAKERNAAAYEILYLPNLTNAQKWAFIWKLDDDPSQSSELLSEAKKLNDSQAPKVD
Work on B2 yielded a Kd [1] of 110 pM, a koff [1] of 0.00038 s⁻¹ and a kon [1] of 3.4e+06 M⁻¹ s⁻¹. It also gave a Kd [2] of 210 pM, a koff [2] of 0.00043 s⁻¹ and a kon [2] of 2.1e+06 M⁻¹ s⁻¹. For the same binder, the Kd [3] was about 2000 pM, the Kd [4] was about 300 pM and the IC50 [5] was 8900 pM. B2: no binding (tested: 500 nM) [6]; no binding (tested: 500 nM) [7]; no binding (tested: 500 nM) [8].

B3: His6-Z17825 (designed binder)
chain: MGSSHHHHHHLQVDAKYAKERNLAAYEILYLPNLTNAQKWAFIWKLDDDPSQSSELLSEAKKLNDSQAPKVD
For B3, the Kd [1] was 210 pM, the koff [1] was 0.00039 s⁻¹ and the kon [1] was 1.9e+06 M⁻¹ s⁻¹. It also gave a Kd [2] of 240 pM, a koff [2] of 0.00047 s⁻¹ and a kon [2] of 2e+06 M⁻¹ s⁻¹. For the same binder, the Kd [3] was about 1200 pM, the Kd [4] was about 250 pM and the IC50 [5] was 160 pM. B3: no binding (tested: 500 nM) [6]; no binding (tested: 500 nM) [7]; no binding (tested: 500 nM) [8].

B4: His6-Z18064 (designed binder)
chain: MGSSHHHHHHLQVDAKYAKERNKAAYEILYLPNLTNAQKWAFIWKLDDDPSQSSELLSEAKKLNDSQAPKVD
B4 was tested, and the Kd [1] was 96 pM, the koff [1] was 0.00034 s⁻¹ and the kon [1] was 3.5e+06 M⁻¹ s⁻¹. The Kd [2] was 130 pM, the koff [2] was 0.00043 s⁻¹ and the kon [2] was 3.5e+06 M⁻¹ s⁻¹. The Kd [3] was about 1500 pM, the Kd [4] was about 130 pM and the IC50 [5] was 390 pM. B4: no binding (tested: 500 nM) [6]; no binding (tested: 500 nM) [7]; no binding (tested: 500 nM) [8].

B5: His6-Z18074 (designed binder)
chain: MGSSHHHHHHLQVDAKYAKERNQAAFEILYLPNLTNAQKWAFIWKLDDDPSQSSELLSEAKKLNDSQAPKVD
In the case of B5, the Kd [1] is reported as 270 pM, the koff [1] is reported as 0.00046 s⁻¹ and the kon [1] is reported as 1.7e+06 M⁻¹ s⁻¹. For the same binder, the Kd [2] was 270 pM, the koff [2] was 0.00054 s⁻¹ and the kon [2] was 2e+06 M⁻¹ s⁻¹. It also gave a Kd [3] of about 2900 pM, a Kd [4] of about 360 pM and an IC50 [5] of 310 pM. B5: no binding (tested: 500 nM) [6]; no binding (tested: 500 nM) [7]; no binding (tested: 500 nM) [8].

B6: His6-Z18048 (designed binder)
chain: MGSSHHHHHHLQVDAKYAKERNSAAYEILYLPNLTNAQKWAFIWKLDDDPSQSSELLSEAKKLNDSQAPKVD
B6 was tested, and the Kd [1] was 240 pM, the koff [1] was 0.00038 s⁻¹ and the kon [1] was 1.6e+06 M⁻¹ s⁻¹. For the same binder, the Kd [2] was 230 pM, the koff [2] was 0.00044 s⁻¹ and the kon [2] was 1.9e+06 M⁻¹ s⁻¹. For the same binder, the Kd [3] was about 1800 pM, the Kd [4] was about 350 pM and the IC50 [5] was 150 pM. B6: no binding (tested: 500 nM) [6]; no binding (tested: 500 nM) [7]; no binding (tested: 500 nM) [8].

B7: His6-Z17748 (designed binder)
chain: MGSSHHHHHHLQVDAKYAKERNAAAYEILYLPNLTQSQKWAFIWKLDDDPSQSSELLSEAKKLNDSQAPKVD
B7 showed a Kd [2] of 340 pM, a Kd [4] of about 450 pM and an IC50 [5] of 1100 pM. B7: no binding (tested: 500 nM) [6]; no binding (tested: 500 nM) [7]; no binding (tested: 500 nM) [8].

B8: Z13117-ABD (designed binder)
chain: AQHDEALEVDAKYAKERNLAAWEILQLPNLTNYQHWAFIWKLDDDPSQSSELLSEAKKLNDSQAPKVDYVLAEAKVLANRELDKYGVSDYYKNLINNAKTVEGVKALIDEILAALPYVPG
notes: domain: GA3
B8: no binding (tested: 8 nM) [9]; no binding (tested: 8 nM) [10]; no binding (tested: 8 nM) [11].

B9: Z13080-ABD (designed binder)
chain: AQHDEALEVDAKYAKERNSAAEEILHLPNLTMQQLWAFIWKLDDDPSQSSELLSEAKKLNDSQAPKVDYVLAEAKVLANRELDKYGVSDYYKNLINNAKTVEGVKALIDEILAALPYVPG
notes: domain: GA3
B9: no binding (tested: 8 nM) [9]; no binding (tested: 8 nM) [10]; no binding (tested: 8 nM) [11].

B10: Z13104-ABD (designed binder)
chain: AQHDEALEVDAKYAKERNRAAYEILQLPNLTNQQHWAFIWKLMDDPSQSSELLSEAKKLNDSQAPKVDYVLAEAKVLANRELDKYGVSDYYKNLINNAKTVEGVKALIDEILAALPYVPG
notes: domain: GA3
B10: no binding (tested: 8 nM) [9]; no binding (tested: 8 nM) [10]; no binding (tested: 8 nM) [11].

B11: Z13088-ABD (designed binder)
chain: AQHDEALEVDAKYAKERNNAATEILRLPNLTAGQTWAFIWKLDDDPSQSSELLSEAKKLNDSQAPKVDYVLAEAKVLANRELDKYGVSDYYKNLINNAKTVEGVKALIDEILAALPYVPG
notes: domain: GA3
B11: no binding (tested: 8 nM) [9]; no binding (tested: 8 nM) [10]; no binding (tested: 8 nM) [11].

B12: Z13186-ABD (designed binder)
chain: AQHDEALEVDAKYAKERNTAALEILYLPNLTKDQVWAFIWKLDDDPSQSSELLSEAKKLNDSQAPKVDYVLAEAKVLANRELDKYGVSDYYKNLINNAKTVEGVKALIDEILAALPYVPG
notes: domain: GA3
B12: no binding (tested: 8 nM) [9]; no binding (tested: 8 nM) [10]; no binding (tested: 8 nM) [11].

B13: Z13134-ABD (designed binder)
chain: AQHDEALEVDAKYAKERNQAATEILVLPNLTHQQHWAFIWKLDDDPSQSSELLSEAKKLNDSQAPKVDYVLAEAKVLANRELDKYGVSDYYKNLINNAKTVEGVKALIDEILAALPYVPG
notes: domain: GA3
B13: no binding (tested: 8 nM) [9]; no binding (tested: 8 nM) [10]; no binding (tested: 8 nM) [11].
